# In all, about 310,000 compounds went through this assay and about 14,000 (4.5%) showed an effect of 50% or more. The effect is printed as a negative number. This is one part of the list.
# Target: human ether-à-go-go-related gene (hERG) potassium channel (human, UniProt Q12809)
# Test: primary screen, population patch clamp on CHO cells stably expressing hERG
# 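Note: peak tail current of the secondary pulse compared with the same well before compound.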
# human ether-à-go-go-related gene (hERG) potassium channel, sequence (Q12809 whole entry, looked up): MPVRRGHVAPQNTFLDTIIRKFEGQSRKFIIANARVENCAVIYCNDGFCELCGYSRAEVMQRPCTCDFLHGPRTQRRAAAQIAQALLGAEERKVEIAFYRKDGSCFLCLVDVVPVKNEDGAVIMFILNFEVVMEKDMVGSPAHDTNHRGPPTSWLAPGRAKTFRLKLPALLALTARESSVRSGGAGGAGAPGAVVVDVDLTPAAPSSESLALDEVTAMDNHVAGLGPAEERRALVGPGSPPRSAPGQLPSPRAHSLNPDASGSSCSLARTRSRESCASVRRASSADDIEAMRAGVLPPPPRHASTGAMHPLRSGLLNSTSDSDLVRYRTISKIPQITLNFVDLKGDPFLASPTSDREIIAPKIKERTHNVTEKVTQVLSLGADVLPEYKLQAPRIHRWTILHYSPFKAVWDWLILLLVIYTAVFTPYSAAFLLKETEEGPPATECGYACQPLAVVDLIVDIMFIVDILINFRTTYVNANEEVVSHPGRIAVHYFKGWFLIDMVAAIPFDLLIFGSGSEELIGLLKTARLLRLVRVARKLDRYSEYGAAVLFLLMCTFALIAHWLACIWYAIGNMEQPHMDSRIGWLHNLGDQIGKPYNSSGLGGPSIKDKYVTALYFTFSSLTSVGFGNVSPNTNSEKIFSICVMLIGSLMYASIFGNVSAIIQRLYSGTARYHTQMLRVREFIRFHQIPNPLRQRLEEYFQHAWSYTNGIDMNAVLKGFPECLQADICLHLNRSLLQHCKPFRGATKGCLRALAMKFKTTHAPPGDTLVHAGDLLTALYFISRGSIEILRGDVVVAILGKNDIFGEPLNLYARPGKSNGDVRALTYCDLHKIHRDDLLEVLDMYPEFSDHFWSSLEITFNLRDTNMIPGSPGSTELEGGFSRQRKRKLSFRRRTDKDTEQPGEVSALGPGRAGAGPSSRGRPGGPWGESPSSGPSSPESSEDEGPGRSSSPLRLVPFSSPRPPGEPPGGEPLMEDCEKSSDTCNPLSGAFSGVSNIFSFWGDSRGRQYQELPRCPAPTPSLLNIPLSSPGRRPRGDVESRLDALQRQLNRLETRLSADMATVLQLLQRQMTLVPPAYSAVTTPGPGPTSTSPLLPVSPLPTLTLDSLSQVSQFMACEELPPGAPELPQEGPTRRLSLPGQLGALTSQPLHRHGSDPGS
row,SMILES,"hERG current change (%, negative = inhibition) at 10uM [%]"
1,CCOc1ccccc1NC(=O)CSc1nnc(-c2ccccn2)n1Cc1ccco1,-67.3
2,Cc1cc(C)c(S(=O)(=O)c2ccccc2)c(N(C)C)n1,4.06
3,CCC(/C=C1\Sc2ccc(OC)cc2N1CCO)=C\c1sc2ccc(OC)cc2[n+]1CCO.[Cl-],-72.9
4,O=C(N/N=C/c1ccccn1)c1ccc(N/N=C/c2ccccn2)cc1.O=S(=O)(O)O,12.2
5,O=C1/C(=C/c2ccccc2)SC(=S)N1CC(=O)N1CCCCC1c1cccnc1 (stereo not shown),-10.9
6,O=C1Cc2ccccc2C(=O)N1Cc1ccccc1,1.63
7,COc1ccc(S(=O)(=O)NCC(c2ccco2)N2CCOCC2)cc1 (stereo not shown),-19.1
8,O=C(CSc1ncccn1)Nc1ccc(N2CCOCC2)cc1,-11.8
9,Cn1c(C(=O)N2CCC(C(=O)N3CCN(Cc4ccc5c(c4)OCO5)CC3)CC2)cc2sccc21,-60.6
10,CN(C)C(=O)CSc1nnc(CCN)o1.Cl,-3
11,CN(CCN1CCOCC1)C(=O)c1cc(COc2ccc(F)c(F)c2)on1,-9.71
12,O=C(/C=C/c1ccccc1)Nn1cnc2ccccc2c1=O,2.91
13,CC(C)C[C@H](NC(=O)N1CCn2c1nc1ccccc12)C(=O)NC1CCCCC1,4.85
14,COc1cc(Cl)ccc1OCc1cc(C(=O)N2CCCC(OC)C2)no1 (stereo not shown),-6.56
15,COc1ccc(NC(=O)c2sc3ncn(CC(=O)N4CCCCC4)c(=O)c3c2C)cc1OC,15
16,CC(C)NC(=O)COc1coc(CN2CCN(c3ccccc3)CC2)cc1=O,-1.14
17,CC(C)(C)C1C/C(=C/c2ccccn2)C(=O)/C(=C/c2ccccn2)C1 (stereo not shown),-23.8
18,CCn1c(SCC(=O)c2[nH]c(C)c(C(C)=O)c2C)nnc1-c1ccncc1,-9.36
19,O=[N+]([O-])c1cn(Cc2ccc(Cl)cc2)cn1,-1.82
20,Cc1ccc2nc(Cl)c(/C=N/NC(=O)[C@H]3C[C@@H]3c3ccccc3)cc2c1,19.5
21,CCOC(=O)c1sc(=S)n(-c2ccccc2)c1SC,1.41
22,COc1cc2c(cc1OC)-c1cc(Nc3ccc(N(C)C)cc3)nc(=O)n1CC2,-27.6
23,Nn1c(SCC(=O)Nc2nccs2)nnc1-c1ccccn1,0.594
24,COc1ccc(S(=O)(=O)Nc2cccnc2)cc1,14.3
25,CSc1ccccc1NC(=O)CN(Cc1ccccc1)S(C)(=O)=O,4.1
26,CCOC(=O)CSc1nsc(SCC(=O)OCC)c1C#N,-55.7
27,CC(/C=N/NC(=O)c1ccncc1)=C\c1ccc(C(C)C)cc1,5.1
28,CC1(c2ccccc2Cl)NC(=O)N(CC(=O)N2c3ccccc3NC(=O)C2(C)C)C1=O (stereo not shown),-3.87

row,SMILES,"hERG current change (%, negative = inhibition) at 10uM [%]"
1,COc1ccc(CCNC(=O)c2cc3c(=O)n4ccccc4nc3n(C3CCCCC3)c2=N)cc1,-81.3
2,CN(CCCC(=O)Nc1ccc(Br)cc1F)S(=O)(=O)c1ccccc1,-16.8
3,CCCCCCSc1ccc([C@H]2N[C@@](C)(C(=O)OC)[C@H]3C(=O)N(CC)C(=O)[C@@H]23)cc1.O=C(O)C(F)(F)F,-2.75
4,O=C(O)c1ccccc1-c1ccccc1C(=O)NNc1ccccc1,2.41
5,O=C(c1ccc(OC2CCN(C(=O)C3CC3)CC2)cc1)N(CCO)Cc1ccccc1,-7.4
6,O=C1c2ccccc2C(=O)N1CCCc1c[nH]c2ccccc12,-18
7,COCCN1Cc2cccc(C(=O)Nc3ccc(-c4nc5ccccc5[nH]4)cc3)c2C1=O,3.23
8,O=C(O)c1[nH]c2ccccc2c1C(c1cccc(O)c1)c1c(C(=O)O)[nH]c2ccccc12,24.4
9,FC(F)(F)c1cnc(-n2cc[nH]c2=S)c(Cl)c1,12.1
10,O=C(CCCOc1ccc(Cl)cc1)N1CCCCC1,-8.73
11,CCOC(=O)c1ccc(NC(=S)N(CCCN(CC)CC)Cc2ccco2)cc1,-76.7
12,O=C(Nc1ccc(-c2nc3c(ccc4ccccc43)o2)cc1)c1ccco1,2.22
13,COc1ccc2nc(-c3cccc(N)c3)[nH]c2c1,0.715
14,CC(=Nc1ccc2c(c1)CCC2)c1c(O)n(C)c(=O)n(C)c1=O,-3.93
15,Cc1nc(P(=O)(c2ccccc2)c2ccccc2)c(N2CCOCC2)o1,16.7
16,O=C(Nc1ccc(Cl)cc1)c1ccc2c(=O)n3c(nc2c1)CCCCC3,-32.5
17,CC(Oc1cc2oc(=O)cc(-c3ccccc3)c2cc1Cl)C(=O)NCC1CCC(C(=O)O)CC1 (stereo not shown),-4.83
18,O=C(CCc1ccc(S(=O)(=O)NCc2ccccc2)cc1)NCC1CCCO1 (stereo not shown),4.07
19,COC(=O)NCc1ccc(S(=O)(=O)N2CCOCC2)cc1,18.6
20,Cc1ccc(CN2CCN(Cc3ccc(-n4cccn4)cc3C)CC2CCO)cc1 (stereo not shown),-78.6
21,COc1ccc(NC(=O)CCSc2ccc3ccccc3n2)cc1,-11.7
22,Cc1ccc(NC(=O)CC(NCC2CCCO2)C(=O)O)cc1C (stereo not shown),23.3
23,O=C(NCc1ccccc1)C1CC(=O)N(c2ccc(OCC(=O)N3CCCC3)cc2)C1 (stereo not shown),-8.34
24,Cn1cc(CNC(=O)c2cc(-c3ccccc3)nc3ccc(Br)cc23)cn1,11.7
25,COc1ccc([N+](=O)[O-])cc1NC(=O)Cc1ccc(C)cc1,19.4
26,Cc1nc2nc(Cc3ccccc3)nn2c(C)c1Cl,-24.6
27,COc1ccccc1CN1CCCC(C(=O)c2ccccc2SC)C1 (stereo not shown),-71.1
